# Reference: paper PMC4336329 (PLoS ONE, 2015)
# About 2,200 (0.71%) of roughly 310,000 compounds showed an effect of 50% or more. Effects have a minus sign here. Some of the results follow.
# Target: human ether-à-go-go-related gene (hERG) potassium channel (human, UniProt Q12809)
# Assay: primary screen, population patch clamp on CHO cells stably expressing hERG
# Sequence of human ether-à-go-go-related gene (hERG) potassium channel (Q12809 whole entry, looked up): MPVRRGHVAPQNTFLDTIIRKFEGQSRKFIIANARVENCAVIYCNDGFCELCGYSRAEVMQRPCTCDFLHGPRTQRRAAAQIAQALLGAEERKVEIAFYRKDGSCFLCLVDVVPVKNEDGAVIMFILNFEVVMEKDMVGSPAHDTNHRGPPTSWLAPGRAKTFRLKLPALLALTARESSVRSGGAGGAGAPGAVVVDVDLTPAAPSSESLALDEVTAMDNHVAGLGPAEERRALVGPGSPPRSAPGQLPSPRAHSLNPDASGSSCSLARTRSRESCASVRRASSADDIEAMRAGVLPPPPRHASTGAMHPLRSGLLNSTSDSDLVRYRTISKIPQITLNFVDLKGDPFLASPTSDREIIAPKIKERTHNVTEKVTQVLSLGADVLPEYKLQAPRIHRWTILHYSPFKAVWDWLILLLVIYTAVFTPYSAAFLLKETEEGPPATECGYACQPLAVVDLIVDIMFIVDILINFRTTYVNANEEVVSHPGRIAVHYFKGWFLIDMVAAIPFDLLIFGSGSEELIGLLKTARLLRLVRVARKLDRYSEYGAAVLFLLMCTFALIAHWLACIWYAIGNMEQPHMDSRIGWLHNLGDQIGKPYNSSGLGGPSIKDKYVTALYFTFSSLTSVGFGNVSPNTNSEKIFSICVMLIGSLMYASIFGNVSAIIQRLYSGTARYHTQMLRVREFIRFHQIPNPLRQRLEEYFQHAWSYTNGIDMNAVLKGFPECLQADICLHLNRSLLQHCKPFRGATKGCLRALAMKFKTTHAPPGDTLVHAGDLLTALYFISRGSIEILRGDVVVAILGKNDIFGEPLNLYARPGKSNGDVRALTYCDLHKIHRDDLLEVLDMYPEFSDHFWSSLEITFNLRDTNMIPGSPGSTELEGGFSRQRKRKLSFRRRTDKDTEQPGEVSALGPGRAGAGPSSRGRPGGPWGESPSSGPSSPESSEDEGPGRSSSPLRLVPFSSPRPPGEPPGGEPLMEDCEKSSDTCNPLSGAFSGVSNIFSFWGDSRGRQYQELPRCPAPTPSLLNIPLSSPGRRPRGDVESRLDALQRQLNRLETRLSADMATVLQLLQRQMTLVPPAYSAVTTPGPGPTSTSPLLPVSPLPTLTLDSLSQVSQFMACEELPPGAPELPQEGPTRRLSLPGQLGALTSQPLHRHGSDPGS
row,SMILES,"hERG current change (%, negative = inhibition) at 1uM [%]"
1,COc1ccccc1NC(=O)CSC(N)=O,16.1
2,CN(C)C(=O)Cn1c(SCC(=O)NC2CCCCC2)nc2ccccc21,12.2
3,CCCCCCC(C)(C)c1ccc([C@@H]2C[C@H](O)CC[C@H]2CCCO)c(O)c1,10.3
4,COCC1CCN(C(=O)C2CCC(=O)N(CCc3cccc(F)c3)C2)CC1 (stereo not drawn),10.9
5,Cc1noc(C)c1COc1ccc(C(=O)OCC(=O)Nc2ccc3ccccc3c2)cc1,8.77
6,O=C(Nc1nnc(CCN2CCOCC2)s1)C1CCCCC1,9.36
7,CCOc1ccc(C2c3cc(OC)c(OC)cc3CC(=O)N2c2ccc(OC)cc2)cc1 (stereo not drawn),20.9
8,CCCN(CC1CC1)CC(O)c1ccccc1.O=C(O)C(=O)O (stereo not drawn),16.7
9,Fc1ccc(-c2cc(C(F)(F)F)nc(NCC3CCCO3)n2)cc1 (stereo not drawn),11.8
10,O=C(O)C1CCCCC1C(=O)N1CC=C(c2ccccc2)CC1 (stereo not drawn),11
11,CCCn1nc(C(=O)NNC(=O)C2CSC3(C)CCC(=O)N23)c2ccccc2c1=O (stereo not drawn),8.62
12,CCOC(=O)CC1NCCc2c1[nH]c1ccc(OC)cc21.Cl (stereo not drawn),10.5
13,CC1CCN(C(=O)CSc2nnc(CNC(=O)COc3ccc(Cl)cc3)o2)CC1,10.5
14,COc1ccc(C(=O)Nc2cccc(-c3csc(C)n3)c2)cc1S(=O)(=O)N1CCCC1,2.41
15,O=C(CN1CCN(S(=O)(=O)c2ccccc2)CC1)Nc1ccc(Cl)cn1,-9.81
16,O=C(NC1CCCC1)C(c1ccsc1)N(Cc1ccccc1)C(=O)Cc1cccs1 (stereo not drawn),3.99
17,O=C(Cc1cccs1)Nc1cccc(-c2nc3ccccc3[nH]2)c1,8.25
18,COc1ccc(C(N)CCc2ccc(C)o2)cc1.Cl (stereo not drawn),1.02
19,O=C(NC1CC1)c1ccc2c(c1)ncn2C1CCCC1,3.39
20,CN(Cc1ccncc1)C1CC(=O)N(c2ccc(F)cc2)C1=O (stereo not drawn),13.6
21,COc1ccccc1N1C(=O)NC(=O)/C(=C/c2ccc3c(c2)Cc2ccccc2-3)C1=O,7.53
22,CCOc1cccc(CN2CCN(c3cccc(C(F)(F)F)c3)CC2)c1O,-19
23,Cc1nnc(NC(=O)CSc2nnc(CNC(=O)C34CC5CC(CC(C5)C3)C4)n2C2CCCCC2)s1,11.9

row,SMILES,"hERG current change (%, negative = inhibition) at 1uM [%]"
1,Cc1ccccc1CN(c1ccc(C(=O)N2CCc3ccccc3C2)cc1)S(C)(=O)=O,-11.6
2,O=S(=O)(c1ccc(-c2ccccc2)cc1)N1CCCCC1,14
3,Cc1cc(N2CCN(c3nc4ccccc4s3)CC2)n2ncnc2n1,-74.9
4,CCCc1cc(=O)[nH]c(SCC(=O)Nc2ccc(OC(F)F)cc2)n1,8.93
5,COc1ccc(S(=O)(=O)N2CCC(C(=O)Nc3ccc(F)cc3)CC2)c2cccnc12,-1.03
6,Cc1ccccc1Cn1ccc(NC(=O)c2cnn3c2NC(c2ccccc2)CC3C(F)(F)F)n1 (stereo not drawn),-6.19
7,Cc1ccc(NC(=O)c2ccc(OC(=O)c3cc4ccccc4o3)cc2)cc1,6.15
8,CS(=O)(=O)N(CC(=O)N1CCCC1)c1cc(Cl)c(Cl)cc1Cl,-0.569
9,Cc1ccc(-n2c(O)c(/C=N/N3CCOCC3)c(=O)[nH]c2=S)cc1,6.03
10,COc1ccc(Cc2nnc(NC(=O)C3CC(=O)N(CCc4ccc(F)cc4)C3)s2)cc1OC (stereo not drawn),19.5
11,O=C(N/N=C/c1cccnc1)/C(=C\c1cccs1)NC(=O)c1ccccc1,4.1
12,CC(C)c1ccc(C2NC(=O)c3ccccc3O2)cc1 (stereo not drawn),11.9
13,COCCCn1c(=S)[nH]c(C)c(C)c1=O,13.1
14,Cn1c(SCC(=O)Nc2ccc(N3CCOCC3)cc2)nnc1-c1ccccc1F,0.175
15,CCOC(=O)[C@H]1[C@H]2COc3ccc(OC)cc3[C@@H]2N2C(=O)c3cc(OC)ccc3NC(=O)[C@@]12C,3.96
16,CN(C(=O)COc1ccc([N+](=O)[O-])cc1)C1CCS(=O)(=O)C1 (stereo not drawn),9.28
17,O=C(CN1CCCCC1)NCCNC(=O)CN1CCCCC1,4.2
18,Cc1ccc2cc(C#N)c(NCCNC(=S)NCCCN(C)C)nc2c1C,7.13
19,COc1cccc(Oc2ccc(N/C=C/C(=O)C(C)(C)C)cc2)c1,9.86
20,Cc1cccc(C)c1OCc1n[nH]c(=S)n1-c1ccccc1,17
21,COc1ccc(-n2c(SCC(=O)N3CCC(C(=O)O)CC3)nc3ccccc3c2=O)cc1OC,20
22,O=C(NN=C1CCCC1)c1ccccc1[N+](=O)[O-],15.6
23,N#Cc1ccsc1NC(=O)CCN1CCN(C(c2ccccc2)c2ccccc2)CC1,11.4

row,SMILES,"hERG current change (%, negative = inhibition) at 1uM [%]"
1,Cc1cc(Nc2ccc(F)c(Cl)c2)n2ncnc2n1,6.23
2,CCCc1nn(C)c(C(=O)Nc2cccc(CC)c2)c1Cl,6.37
3,CCCCn1c(SCC(=O)Nc2oc(C)c3c(C)n[nH]c(=O)c23)nc2cc(S(N)(=O)=O)ccc21,-2.66
4,CCc1ccccc1NC(=S)N(Cc1ccco1)C(C)c1cccs1 (stereo not drawn),14.6
5,O=C(NNC1=NS(=O)(=O)c2ccccc21)c1ccccc1,-5.92
6,O=C(NNc1ccc(F)cc1F)C1CCC1,3.02
7,COCCSc1ccccc1C(=O)N1CCOCC1,5.01
8,Cn1c(=O)cc(SCC(=O)N2CCCC2)c2ccc(Cl)cc21,-0.412
9,COc1ccccc1CNC(=O)c1cnc2sccn2c1=O,9.16
10,Cc1cnc(C(=O)OCC(=O)c2ccc(Cl)cc2)cn1,-2.74
11,CCn1c(N2CCN(S(=O)(=O)c3ccccc3)CC2)nc2ccccc21,3.24
12,Cc1ccc(C(=O)/C=C/Nc2ccc(S(=O)(=O)Nc3cc(C)nc(C)n3)cc2)cc1,22.1
13,CCOC(=O)C1=C(C)NC(c2cccs2)C(=O)N1 (stereo not drawn),15.4
14,COc1ccc(-c2csc3nc(C(C)(C)C)oc(=O)c23)cc1OC,3.7
15,CCc1ccc(N(CC(=O)NCc2ccc(F)cc2)C(=O)c2csnn2)cc1,-6.43
16,O=C1CCCN1CCCNC(=S)Nc1ccc(Nc2ccccc2)cc1,3.08
17,Cc1ccc(NC(=O)c2ccc(NC(=O)C3CCCCC3C(=O)O)cc2)cc1 (stereo not drawn),13.3
18,CCC(=O)c1c[nH]c(C(=O)N2CCN(c3ccccc3)CC2)c1,-5.99
19,Cl.N=c1n(Cc2ccccc2)c2ccccc2n1CC(O)COc1ccccc1 (stereo not drawn),-55.8
20,COc1cc(CN2CCN(CC#Cc3ccccc3)CC2CCO)cc(OC)c1 (stereo not drawn),8.01
21,Cc1c(NC(=O)c2n[nH]c(=O)c3ccccc23)c(=O)n(-c2ccccc2)n1C,26.3
22,CC(CNC(=O)c1ccc(C(C)(C)C)cc1)CN(C)C.Cl (stereo not drawn),9.28
23,Cl.Clc1ccc(CNC2CCCC2)c(Cl)c1,7.35

row,SMILES,"hERG current change (%, negative = inhibition) at 1uM [%]"
1,O=C(/C=C/c1cccc(Cl)c1)NCCN1CCOCC1,1.19
2,CCCC1=Nc2cc(C(=O)N3CCCC3)ccc2Sc2ccc(C)cc21,11.7
3,COc1ccc2nc(N/C(=N/S(=O)(=O)c3cccs3)c3ccccc3Cl)sc2c1,-6.03
4,OCC1(CCOc2ccccc2)CCN(Cc2nc3ccc(F)cc3[nH]2)CC1,-15.9
5,Cc1cc(CNC(=O)c2cc(-c3ccccc3)nc3ccccc23)nn1C,6.44
6,COC(=O)c1ccccc1NC(=O)/C=C/c1ccco1,3.42
7,Oc1ccc2ccccc2c1CN1CCN(C/C=C/c2ccccc2)CC1,11.5
8,CC(=O)Nc1nc2ccc(NC(=O)c3ccco3)cc2s1,8.18
9,Cc1ccc(NC(=O)c2cccc(S(C)(=O)=O)c2)cc1,11.5
10,S=c1[nH]c(-c2ccccc2)cn1/N=C/c1ccncc1,0.515
11,O=C(NCc1ccccn1)Nc1ccc(Cl)cc1Cl,16
12,CCN(CC(N)=O)S(=O)(=O)c1ccc(F)cc1,0.425
13,CCOc1ccc(NC(=O)CC2C(=O)N(c3cccc(OC)c3)C(=O)N2CCOC)cc1 (stereo not drawn),3.67
14,O=C(c1ncc[nH]1)c1ccccc1Cl,-4.31
15,Fc1ccc(-c2[nH]ncc2CN(CC2CCC2)CC2CCCO2)c(F)c1 (stereo not drawn),5.94
16,CSc1ccccc1NC(=O)CN(C)C(C)C(=O)Nc1ccc(C#N)cc1 (stereo not drawn),-11.6
17,CCCCN(C(=O)c1ccc(Cl)cc1)C1CC2CCC(C1)N2C.Cl (stereo not drawn),-15.6
18,CN(C)CCCN(C(=O)c1cc(Cl)sc1Cl)c1nc2cc3c(cc2s1)OCO3.Cl,13.8
19,CN(CCCNC(=O)c1ccccc1F)CCCNC(=O)c1ccccc1F,11.8
20,CC(C)C(=O)N1CCN(c2ccccc2N)CC1,-1.23
21,Cc1cc(C)nc(SCc2ccccc2C#N)n1,-2.59
